Assay results: article PMC12136788
This is one part of the list.

T1: UNK ZnF1-6 (called full-length) (human, UniProt Q9C0B0 30-357)
T1 sequence: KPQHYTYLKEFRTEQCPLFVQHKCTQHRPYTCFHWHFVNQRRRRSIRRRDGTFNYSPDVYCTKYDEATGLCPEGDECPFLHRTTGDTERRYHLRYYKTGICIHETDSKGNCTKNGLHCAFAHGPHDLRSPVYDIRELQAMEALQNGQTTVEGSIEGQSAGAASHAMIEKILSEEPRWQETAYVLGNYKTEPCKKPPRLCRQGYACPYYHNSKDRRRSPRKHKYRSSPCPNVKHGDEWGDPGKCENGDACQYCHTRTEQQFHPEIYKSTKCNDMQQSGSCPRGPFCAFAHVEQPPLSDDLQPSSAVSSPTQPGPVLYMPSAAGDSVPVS

B1: chr9:124811826:124811928:+|3pUTR|ENSG00000185585|msi1|FALSE|unique (ssRNA)
RNA: GGGAGUUCUACAGUCCGACGAUCAAGAAAUUUUCUAGCCCAACUCCCUGUUUCAUGAAAGAGAAAAGAGGCUCAGAAAAGUUUAGAGAGCAGCUCAGUGUCACACUGGGAGCUGGGCACAGCCGAUCUCCUUCCAGAAGGGUUCAACAGAGGAUUGAGCAUCA
B2: chr11:123753582:123754518:-|CDS|ENSG00000221931|control|control|control (ssRNA)
RNA: GGGAGUUCUACAGUCCGACGAUCGUGGUGUCUGUGCUAAAUACUAUCCUCACCCCCCUUCUGAAUCCCUUUAUUUAUACUAUUAGAAACAAGGAGGUGAAGGGAGCCUUAAGAAAGGCAAUGACUUGCCCAAAGACUGGUCAUCAACAGAGGAUUGAGCAUCA
B3: chr11:118254921:118255022:-|3pUTR|ENSG00000149573|unk|FALSE|unique (ssRNA)
RNA: GGGAGUUCUACAGUCCGACGAUCACAGCCUCAUUAUUAAGGUCUUAUUUAAUUUCAGAGUGUAAAUUUUUUCAAGUGCUCAUUAGGUUUUAUAAACAAGAAGCUACAUUUUUGCCCUUAAGACACUACUUACAGUGUUAUGACCAACAGAGGAUUGAGCAUCA
B4: chr2:171983412:171983537:+|3pUTR|ENSG00000128708|unk|FALSE|unique (ssRNA)
RNA: GGGAGUUCUACAGUCCGACGAUCUGAUGACUUUAAUUUUAAAAUCUUGUGACAUUUUGCUUAUACUAAAAGUUAUCUAUCUUUAGUUGAAUAUUUUCUUUUGGAGAGAUUGUAUAUUUUAAAAUACUGUUUAGAGUUUAUGAGCAACAGAGGAUUGAGCAUCA
B5: ENSG00000136451:be:win_2501|3pUTR|ENSG00000136451|bound_else_gene|NA|bound_elsewhere_windowed (ssRNA)
RNA: GGGAGUUCUACAGUCCGACGAUCUCCCAAUCAGAGCCUGUUGAUAUUACAACAGGGACAGAUGUGUUAGUUGCUCACUAGAGUUUAUGUCUUAUAUUAAAUUGUAUACAGUUUUUAUUCUAACCACUAACUAGGUAGUGUAUGCAACAGAGGAUUGAGCAUCA
B6: ENSG00000136451:be:win_3651|3pUTR|ENSG00000136451|bound_else_gene|NA|bound_elsewhere_windowed (ssRNA)
RNA: GGGAGUUCUACAGUCCGACGAUCGGCAUGCAGACCCAAAACUGGGUUCUGGCUCUGCCUGCUGGGAUCUGUUAUCUCUGGUGGGCUGGCAGUCAUAAUUCACAAUUCAGACAGCCCAGGCUUCCUCCACAGUGGUCCAAGGAGCAACAGAGGAUUGAGCAUCA
B7: chr15:63694043:63694144:-|CDS|ENSG00000103657|unk|total|mutant (ssRNA)
RNA: GGGAGUUCUACAGUCCGACGAUCAGGACCUAUGCUGAUAAACUGAGUCCCAAAGCCGUUCAAUCCUUGUUGGAUCUACUCUGCCGUCAGUUGAAGAAUUUAUUGUCCCAAACUGGUGUACUACAUAUGGCCUCUUUCGGAGAACAACAGAGGAUUGAGCAUCA
B8: chr5:55135756:55136053:-|three_prime_utr|ENSG00000164287|control|control|control (ssRNA)
RNA: GGGAGUUCUACAGUCCGACGAUCGAAUUGCUUGAACCAGGGAGGCGGAAGUUGCAGUGAGCUGAGACCGUGCCACUGCUCUCUAGCUUGGCUGACAGAGUGAGACUCUGUCUCAAAAAAAAAAAUAUUUUUUUUGGAAAUUUUCAACAGAGGAUUGAGCAUCA
B9: chr3:152462637:152462738:+|3pUTR|ENSG00000152601|msi1|FALSE|unique (ssRNA)
RNA: GGGAGUUCUACAGUCCGACGAUCGAACAACAUUGUCUUUCUUUUCUAGCACAGAGUUAUGCAUUCAAAGAUGCAUACCUAGUUAGUUUCCUAUAUAUUCAUGCCAUCUUGAAAAGACAGACUAUGGUGUAACCAUGAUUCUAUCAACAGAGGAUUGAGCAUCA
B10: ENSG00000070961:be:win_5351|3pUTR|ENSG00000070961|bound_else_gene|NA|bound_elsewhere_windowed (ssRNA)
RNA: GGGAGUUCUACAGUCCGACGAUCUCACCAGAUACACAAUCCUCAGGCUGACAUAAAGUUUACGAGGACUGCUACUAUAACUGAGAGUGCUGACCAAGCAAAGAAACAUUUAGUUGAUGGUGCUUGAUAUUUUUGGUGGGUGGGCAACAGAGGAUUGAGCAUCA
B11: chr10:104129887:104130138:-|three_prime_utr|ENSG00000197748|control|control|control (ssRNA)
RNA: GGGAGUUCUACAGUCCGACGAUCAAAAAAUCAUUUCAUUUGGGUAAAAUGAUUUCCUUUUCUUUCUUACUGGGAAAUUGAAGUAGCAUGUCCUCUGAGUUGCAUGUUUUAGAUAAAAAAUUGUUUAAUUUUAGCCUUAAUUGUCAACAGAGGAUUGAGCAUCA
B12: chr10:94132299:94132400:+|CDS|ENSG00000138193|unk|FALSE|unique (ssRNA)
RNA: GGGAGUUCUACAGUCCGACGAUCUGAGUAUCGCGCCACCCUCCAAAGGACUUCAAUAUCGCAGUACAUCACCGGUUCUCUCCUAGAAGCAACCACGUCUUUGGGAGCAAGAAGUGGCCUUCUCAGUACUUUUGGAGGAUCCACCAACAGAGGAUUGAGCAUCA
B13: chr15:32738025:32738127:+|3pUTR|ENSG00000166923|unk|total|mutant (ssRNA)
RNA: GGGAGUUCUACAGUCCGACGAUCGGAUAUCUGCUGUCACUAUUUUUAUUCAAUAUUAUACUGGAGGUUCUACCCCGGGUAAUCCGGCAAAAAAAAAAAAAAAAAAAAAAAAAAAAAAAAAAAAAAAAAAAAAAAAAAGAAAAGCAACAGAGGAUUGAGCAUCA
B14: chr16:23064695:23064796:-|3pUTR|ENSG00000103404|msi1|FALSE|unique (ssRNA)
RNA: GGGAGUUCUACAGUCCGACGAUCGUUUAUGGAGGGCCUUCUUUGAGCACAGAGGCAAAACUGAAAGCUUCAGGGAUUUGCUGUAGCUGAGGAGCCCUGGGAGCACAGCCCAUCAAGCAAGGGAUGUGAUGGUGUCCUAAAUGGCAACAGAGGAUUGAGCAUCA
B15: chr6:105096826:105097152:-|3pUTR|ENSG00000112276|msi1|FALSE|unique (ssRNA)
RNA: GGGAGUUCUACAGUCCGACGAUCACUUGCAACCUAGUUUUAAAAUACAUGAGGAUUUUAUGAAAGCUUUAUACAGACAUUUAUAGGAAACUCAUUCUUUGAUUUUAGGUGCCAUUUAAAUUGAUAACACUUACUUUAUAAAAACAACAGAGGAUUGAGCAUCA
B16: chr4:109463114:109463221:+|CDS|ENSG00000138802|unk|FALSE|unique (ssRNA)
RNA: GGGAGUUCUACAGUCCGACGAUCAGGAGCACAGCAGUUGUACAGCAGGGGUCCUCCUGCCCCUCAUAUUGUGGGAUCCACUCUAGGAUCUUUCCAAGGUGCUGCAUCGUCAGCAUCCCAUUUGCAUACGAGUGCCUCCCAACCCAACAGAGGAUUGAGCAUCA
B17: chr3:62294290:62294391:+|3pUTR|ENSG00000144724|msi1|total|mutant (ssRNA)
RNA: GGGAGUUCUACAGUCCGACGAUCAACCCGUCCUCUAAAAAUUCCCUAUUACUCCUACCGCAAUCUAAUAAAAACUACCUACACCGUUACUGUUUUCUUUCCUUCUUUGCCAAAUGUUUUAUAAUAAAUCUCUUAAUUACAUACCAACAGAGGAUUGAGCAUCA
B18: chr17:5384886:5384987:+|3pUTR|ENSG00000029725|unk|total|mutant (ssRNA)
RNA: GGGAGUUCUACAGUCCGACGAUCGGUUUAAGACCCGUCCCUUGGAUAAGCCCCAAGCGAAUUUGUCUUCAGAUUAUUAAAAUCCGUGCUGUAAAUCAGGGUGGGCAAUUCACAGCCUUUCUGAACUGACUGAACCCGAGCUUGCAACAGAGGAUUGAGCAUCA
B19: chr2:216674221:216674322:-|3pUTR|ENSG00000115461|msi1|total|mutant (ssRNA)
RNA: GGGAGUUCUACAGUCCGACGAUCGCAUGCCCCAUCUCUCUGCACAGCUGUCCCCUAAACCCAACUCACGUUUCUGUAUGUCUCCGGCCAGUAUCCCAAACCUCUUCCACGUCACUGUUCUUUCCACCCAUUCUCCCUUUGCAUCAACAGAGGAUUGAGCAUCA
B20: chr1:201892154:201892255:+|3pUTR|ENSG00000198892|msi1|total|mutant (ssRNA)
RNA: GGGAGUUCUACAGUCCGACGAUCUGUUUGUCCCCUCUGGGCUGGGGUGGGGGGAGGGAGGAGGUUCCGUCAGCAGCUGGCAGCCGCCCUCCUCUCUGGCUGCCCCACUGGCCACAUCUCUGGCCUGCCCGAUUAAAGCUGUAACAACAGAGGAUUGAGCAUCA
B21: chr6:36925443:36925544:+|3pUTR|ENSG00000198663|msi1|total|mutant (ssRNA)
RNA: GGGAGUUCUACAGUCCGACGAUCGAGGCAUCCCGUGGGAAAGUCCCCUAAGUCCCAUUUUGUACUUCAACAAAAAAUGACUGCCGCAGAAGAUAAGUGGAGACUUUUAUGGAUAUACUACUCAUUUUACUUAAAAUCUACCCACAACAGAGGAUUGAGCAUCA
B22: chr7:7234405:7234460:+|CDS|ENSG00000106392|msi1_unk|FALSE|overlapping (ssRNA)
RNA: GGGAGUUCUACAGUCCGACGAUCAAUUUUUUAACCUUCCUCUGUGGAUCAGCAAUAGGAUUUCUUUUAUGUUCUCAGCUAUUUAGUAUUUUGUUGGGAGAAAAGGUUGACACCCAGCCUAAUGUUCUUCAUAAUGAUCCUCAUCAACAGAGGAUUGAGCAUCA

target: T1, UNK ZnF1-6 (called full-length); assay: nsRBNS (natural sequence RNA bind-n-seq); RBNS binding buffer (assumed for nsRBNS): 25 mM Tris pH 7.5, 150 mM KCl, 3 mM MgCl2, 0.01% Triton X-100, 500 ug/ml BSA, 20 U/ml SUPERase-In, 4 C; UNK is unkempt and MSI1 is Musashi-1; names of the RNAs are library labels; protein concentration not given here; high values mean tight binding

| Binder | binding signal [enrichment R] |
| --- | --- |
| B1 | 0.715 |
| B2 | 1.14 |
| B3 | 3.59 |
| B4 | 4.24 |
| B5 | 12.3 |
| B6 | 0.843 |
| B7 | 0.357 |
| B8 | 0.768 |
| B9 | 1.94 |
| B10 | 0.586 |
| B11 | 13.5 |
| B12 | 0.599 |
| B13 | 3.68 |
| B14 | 0.81 |
| B15 | 1.57 |
| B16 | 0.73 |
| B17 | 3.11 |
| B18 | 0.457 |
| B19 | 1.02 |
| B20 | 0.547 |
| B21 | 0.615 |
| B22 | 2.12 |
